We go through 146 sequences from the BET-seq Pho4 binding data (Le et al. 2018).

The list shows a part of the results. The energies were worked out here from pooled read counts, against the library average; single values are noisy.

The experiment addresses T1, Pho4 (S. cerevisiae) (UniProt P07270).
T1 sequence: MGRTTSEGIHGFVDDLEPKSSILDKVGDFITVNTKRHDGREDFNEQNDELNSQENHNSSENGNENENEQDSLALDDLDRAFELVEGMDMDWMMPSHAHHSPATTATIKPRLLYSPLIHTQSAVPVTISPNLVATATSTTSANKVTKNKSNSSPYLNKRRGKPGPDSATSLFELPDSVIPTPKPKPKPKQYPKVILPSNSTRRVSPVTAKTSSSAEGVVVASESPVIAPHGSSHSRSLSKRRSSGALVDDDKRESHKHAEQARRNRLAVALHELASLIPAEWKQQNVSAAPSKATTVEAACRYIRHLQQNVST
Description: relative binding free energy (BET-seq); higher = weaker binding. The note with it: reference: library average.
For the sequence TGGCTCACGTGAGGCT, the “relative binding free energy” value was determined as 0.39 kcal/mol. With AGTGCCACGTGGTGTA the figure was -0.3 kcal/mol; with TGGTGCACGTGAACGG, 0.26 kcal/mol; with AGAGGCACGTGTCTGT, -0.13 kcal/mol. Regarding AGGATCACGTGGTAGG, the “relative binding free energy” value came to 0.07 kcal/mol.

As for CCTGCCACGTGTGGGG, the “relative binding free energy” value is -0.02 kcal/mol. With AGTGTCACGTGAGATG the figure was 0.21 kcal/mol; with GGAGTCACGTGACTGG, 0.29 kcal/mol. For the sequence AGTATCACGTGGTTCT, the “relative binding free energy” value was 0.05 kcal/mol. To GTGATCACGTGGAACG belongs 0.35 kcal/mol; to GTCGGCACGTGATAAG, 0.13 kcal/mol; to TGCGCCACGTGGGTTG, -0.38 kcal/mol.

Take CGTTGCACGTGGTGAT: the “relative binding free energy” value is -0.06 kcal/mol. TTATGCACGTGGTCGT: the “relative binding free energy” value is -0.17 kcal/mol.

In the case of GAAGGCACGTGGTCAG, the “relative binding free energy” value was -0.06 kcal/mol. With GTCTGCACGTGGTATG the figure was -0.05 kcal/mol; with GTTTGCACGTGATTTC, 0.18 kcal/mol; with GTAGTCACGTGAATTA, 0.39 kcal/mol. For the sequence ATTTGCACGTGAGAGC, the “relative binding free energy” value is 0.32 kcal/mol. With CTATTCACGTGAATGG the figure was 0.35 kcal/mol; with TTTCTCACGTGGGGGC, 0.26 kcal/mol; with GAGTACACGTGGGGAA, -0.12 kcal/mol.

With GAAGGCACGTGGGTAA, the “relative binding free energy” value was -0.15 kcal/mol. To ACGAACACGTGTGGGG belongs 0.01 kcal/mol. To AAGCGCACGTGGGTTT belongs -0.25 kcal/mol; to GTGTTCACGTGGTTCT, 0.27 kcal/mol. With GATGTCACGTGATAAG, the “relative binding free energy” value was 0.28 kcal/mol. Turning to ATATTCACGTGTGTGG, the “relative binding free energy” value is 0.21 kcal/mol. With TGTAGCACGTGGCGTA the figure was -0.23 kcal/mol; with GCATTCACGTGGGTAT, 0.21 kcal/mol; with TATAGCACGTGAAGTA, 0.51 kcal/mol. For TGGAACACGTGGTTAA, the “relative binding free energy” value is 0.06 kcal/mol. As for GCGGGCACGTGTATGC, the “relative binding free energy” value came to 0.06 kcal/mol. Take TTGCACACGTGTGATA: the “relative binding free energy” value was determined as 0.19 kcal/mol.

As for GAAGTCACGTGATTTA, the “relative binding free energy” value was determined as 0.41 kcal/mol. With ATATTCACGTGTCATG, the “relative binding free energy” value worked out at 0.13 kcal/mol.

Consider GGTAGCACGTGAGTTT, for which the “relative binding free energy” value was 0.3 kcal/mol.

For GGTCTCACGTGTTGTG, the “relative binding free energy” value worked out at 0.19 kcal/mol. To GGAATCACGTGTTAAT belongs 0.36 kcal/mol; to GTTCACACGTGGTATT, 0.1 kcal/mol. With TGGTGCACGTGCGTTA, the “relative binding free energy” value is -0.05 kcal/mol. To TAGTTCACGTGGAAGT belongs 0.34 kcal/mol. Turning to ATATACACGTGCTTGT, the “relative binding free energy” value was -0.08 kcal/mol. With TGTTGCACGTGGTTGA the figure was -0.1 kcal/mol. Take GCGGACACGTGTGTTT: the “relative binding free energy” value was 0.15 kcal/mol. With TCTCTCACGTGTTGGT the figure was 0.18 kcal/mol. To AAAAACACGTGTGTGT belongs -0.1 kcal/mol; to CGGGGCACGTGGGCAG, -0.24 kcal/mol; to TGTATCACGTGTGTCC, 0.16 kcal/mol. With CTCATCACGTGTAGGT the figure was 0.23 kcal/mol; with GATGACACGTGAGAGG, 0.2 kcal/mol. On to GGGAGCACGTGGGCAG, for which the “relative binding free energy” value is -0.32 kcal/mol. To ATCGGCACGTGTGGCT belongs 0.08 kcal/mol. With TTGTACACGTGAGTTC the figure was 0.17 kcal/mol; with TCGGTCACGTGCTTTT, 0.04 kcal/mol.

Take TGTCACACGTGGTATG: the “relative binding free energy” value was -0.18 kcal/mol. To TGGCGCACGTGTCGGA belongs -0.13 kcal/mol; to CAGGGCACGTGTTCGG, -0.15 kcal/mol; to TATGTCACGTGGGCGT, -0.01 kcal/mol. Consider AGTGGCACGTGGCCAG, for which the “relative binding free energy” value is -0.13 kcal/mol. To ATTATCACGTGTATCG belongs 0.15 kcal/mol. To GTGTGCACGTGCTCGG belongs 0.11 kcal/mol.

Consider TTTTCCACGTGATGTG, for which the “relative binding free energy” value is 0.21 kcal/mol. With CGGTACACGTGTATGG, the “relative binding free energy” value worked out at 0.08 kcal/mol. To TTAGGCACGTGACAGG belongs -0.01 kcal/mol; to TGTGTCACGTGTTCTG, 0.07 kcal/mol; to CTAGGCACGTGGGAAT, 0 kcal/mol. To TGTTTCACGTGTGTTG belongs 0.31 kcal/mol; to AGAGGCACGTGAAGTC, 0.2 kcal/mol; to GCATGCACGTGTAGTG, -0.03 kcal/mol. Turning to TGAGTCACGTGTAGAT, the “relative binding free energy” value was found to be 0.29 kcal/mol. To AAAGGCACGTGTTGCG belongs -0.18 kcal/mol; to GCAGGCACGTGGAATG, -0.01 kcal/mol; to TAGAGCACGTGGGGAG, -0.33 kcal/mol. To CTGTGCACGTGTTAGT belongs 0.04 kcal/mol; to ACTGGCACGTGGGCTT, -0.18 kcal/mol; to ATTCGCACGTGGAAGG, 0.02 kcal/mol. Take CTGTTCACGTGGGTAC: the “relative binding free energy” value amounted to 0.11 kcal/mol. For TGTAACACGTGTATTT, the “relative binding free energy” value was 0.01 kcal/mol. With TTACGCACGTGGGTCG the figure was -0.24 kcal/mol; with CTTTTCACGTGGGTAG, 0.1 kcal/mol.

In the case of AAGCTCACGTGGCGGG, the “relative binding free energy” value is 0.13 kcal/mol. With TGGATCACGTGTGCTG the figure was 0.15 kcal/mol; with TCTGTCACGTGAGTGT, 0.28 kcal/mol; with GTTTACACGTGGCTTG, 0.06 kcal/mol.

Turning to CGGTGCACGTGAGTTA, the “relative binding free energy” value came out at 0.3 kcal/mol. For the sequence GGAGGCACGTGTTGAA, the “relative binding free energy” value turned out to be 0.06 kcal/mol. With TTATACACGTGGTAGT the figure was -0.01 kcal/mol; with TTGGGCACGTGGCTAA, -0.22 kcal/mol; with TGTTGCACGTGCTGGA, 0.01 kcal/mol.

Consider ATAGTCACGTGATGTC, for which the “relative binding free energy” value is 0.16 kcal/mol. To TCGTGCACGTGGCGTA belongs -0.14 kcal/mol; to ATTTGCACGTGTAAGG, 0.02 kcal/mol; to AGGTGCACGTGGGGAT, -0.09 kcal/mol.

On to AGGTACACGTGCGGAT, for which the “relative binding free energy” value was -0.06 kcal/mol. Regarding CGTAGCACGTGTCGGA, the “relative binding free energy” value was 0.03 kcal/mol.

In the case of GGCACCACGTGTTGTG, the “relative binding free energy” value was found to be 0.14 kcal/mol.

On to AATTGCACGTGGGCTG, for which the “relative binding free energy” value is -0.29 kcal/mol.

In the case of GGGCACACGTGAGCGG, the “relative binding free energy” value came out at 0.32 kcal/mol. In the case of TGGGTCACGTGATGTC, the “relative binding free energy” value turned out to be 0.32 kcal/mol. Turning to CGGCTCACGTGGGGTC, the “relative binding free energy” value turned out to be 0.24 kcal/mol. To AGTGTCACGTGTATGG belongs 0.02 kcal/mol; to GGTCACACGTGTGATT, 0.31 kcal/mol. To AAGTTCACGTGTCTGT belongs 0.16 kcal/mol.

TTGGTCACGTGATAAT: the “relative binding free energy” value came out at 0.22 kcal/mol. To CTCGTCACGTGTGTGA belongs 0.04 kcal/mol. To TGATACACGTGGTGTG belongs -0.15 kcal/mol; to AATATCACGTGTATGG, 0.03 kcal/mol; to TGCGGCACGTGTGTGG, -0.02 kcal/mol.

As to GTTACCACGTGTTCGT, the “relative binding free energy” value is 0.14 kcal/mol. To TGGAACACGTGACAGG belongs 0.37 kcal/mol. With TTAGGCACGTGTCGCG the figure was -0.09 kcal/mol.

On to ACGTGCACGTGGATTG, for which the “relative binding free energy” value is -0.07 kcal/mol. With ATACGCACGTGGTTAG the figure was -0.16 kcal/mol. TTAGTCACGTGTTGCG: the “relative binding free energy” value came out at 0.05 kcal/mol. With GGGGTCACGTGCTGGC the figure was 0.04 kcal/mol.

Consider GGTTGCACGTGGTATG, for which the “relative binding free energy” value was 0.03 kcal/mol. For TGCATCACGTGGGGCT, the “relative binding free energy” value was -0.05 kcal/mol. As to GTGGACACGTGCTTAG, the “relative binding free energy” value is 0.03 kcal/mol.

AATGTCACGTGTCGAG: the “relative binding free energy” value was 0.25 kcal/mol. To TAGTACACGTGCGAGT belongs 0.19 kcal/mol; to ATATACACGTGAGTGT, 0.17 kcal/mol; to GGGGGCACGTGCGGCG, -0.19 kcal/mol. To ATGGACACGTGACTGT belongs 0.15 kcal/mol; to GACGTCACGTGGGGTC, 0.06 kcal/mol; to TTTTACACGTGTGACT, 0.11 kcal/mol. With GGTCGCACGTGTTATT the figure was 0.02 kcal/mol; with AACGTCACGTGGGCGT, 0.02 kcal/mol; with CTCTTCACGTGTTATT, 0.15 kcal/mol.

Consider TTTGGCACGTGGCTGC, for which the “relative binding free energy” value was -0.26 kcal/mol. Consider ATGTTCACGTGTGGAG, for which the “relative binding free energy” value was 0.34 kcal/mol.

For the sequence AGTAGCACGTGATTGA, the “relative binding free energy” value was found to be 0 kcal/mol. To GCTAGCACGTGTGGGT belongs -0.09 kcal/mol; to GTAGCCACGTGTTGTT, 0 kcal/mol. As to TTGGGCACGTGGGCCG, the “relative binding free energy” value was -0.26 kcal/mol. With TGAGCCACGTGAGGGT the figure was 0.22 kcal/mol. As for TTGCTCACGTGTTGTT, the “relative binding free energy” value worked out at 0.21 kcal/mol. As for TGCGGCACGTGTTATA, the “relative binding free energy” value was -0.09 kcal/mol. Consider TGTTTCACGTGTAGGT, for which the “relative binding free energy” value was 0.27 kcal/mol.

On to TGGATCACGTGAAGAG, for which the “relative binding free energy” value turned out to be 0.32 kcal/mol. Turning to CGGTCCACGTGTTGGT, the “relative binding free energy” value came to 0.12 kcal/mol. With AGGTGCACGTGCGTGA the figure was -0.09 kcal/mol.

In the case of ATAGACACGTGGTACG, the “relative binding free energy” value was -0.03 kcal/mol. With TGAGGCACGTGGTTCC the figure was -0.13 kcal/mol; with TGCTGCACGTGGTCGG, -0.2 kcal/mol; with AGGAGCACGTGCGTTG, -0.27 kcal/mol.
